Measurements from PubChem BioAssay AID488969 (Vanderbilt High Throughput Screening Facility, 2010).
Over roughly 110,000 compounds, “z-score” has its median near -0.1; the highest 2% begin near 2. This is one part of the list. Active and inactive are the calls of the source.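 How the source made its calls: active means z-score in the third read window above 3 or below -3; inactive means the rest.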

target: Metabotropic glutamate receptor 8 (Rattus norvegicus) (UniProt P70579); assay: rat mGluR8 modulators via GIRK flux, primary screen, cell-based, thallium flux, HTS (AID 488969); settings: HEK293 rat mGluR8, GIRK (G protein-gated inwardly rectifying potassium channel) thallium flux, FluoZin2; at 10 µM; stronger effect = higher value
Sequence of UniProt P70579 (P70579 whole entry, looked up): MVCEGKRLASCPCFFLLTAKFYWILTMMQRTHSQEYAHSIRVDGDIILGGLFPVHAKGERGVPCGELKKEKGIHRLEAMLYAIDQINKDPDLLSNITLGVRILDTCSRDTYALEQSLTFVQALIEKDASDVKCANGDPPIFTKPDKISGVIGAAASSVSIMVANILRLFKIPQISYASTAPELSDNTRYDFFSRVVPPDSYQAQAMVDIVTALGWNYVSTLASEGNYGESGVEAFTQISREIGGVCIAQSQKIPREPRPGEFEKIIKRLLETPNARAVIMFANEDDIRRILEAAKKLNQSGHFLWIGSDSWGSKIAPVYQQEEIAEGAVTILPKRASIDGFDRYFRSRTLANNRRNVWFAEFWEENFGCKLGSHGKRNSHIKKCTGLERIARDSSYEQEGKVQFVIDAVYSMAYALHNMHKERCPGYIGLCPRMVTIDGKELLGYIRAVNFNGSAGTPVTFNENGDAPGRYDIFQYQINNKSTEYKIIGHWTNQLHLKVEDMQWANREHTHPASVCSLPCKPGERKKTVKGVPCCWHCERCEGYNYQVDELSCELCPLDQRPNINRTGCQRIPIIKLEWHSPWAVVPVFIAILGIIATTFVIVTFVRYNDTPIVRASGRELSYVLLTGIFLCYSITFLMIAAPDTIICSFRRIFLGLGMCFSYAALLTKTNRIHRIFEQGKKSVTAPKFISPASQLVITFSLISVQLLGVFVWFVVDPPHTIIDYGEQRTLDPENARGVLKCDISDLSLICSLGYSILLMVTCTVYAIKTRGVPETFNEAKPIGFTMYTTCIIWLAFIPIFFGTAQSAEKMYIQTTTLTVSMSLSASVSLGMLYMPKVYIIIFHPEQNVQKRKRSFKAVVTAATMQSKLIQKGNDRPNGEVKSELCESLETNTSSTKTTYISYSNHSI

Row | SMILES | z-score
1 | Cc1cc(/C=C2/C(=O)NC(=O)N(c3ccccc3)C2=O)c(C)n1-c1ccc(F)cc1 | -0.668
2 | CN1CCN(CC(=O)Nc2ccc(Cl)cc2C(=O)c2ccccc2)CC1 | -1.07
3 | c1ccc2c(CNC3CCCCC3)c[nH]c2c1 | active: 4.16
4 | COC(=O)CCCNC(=O)CN1CC(c2ccccc2)CC1=O (centres undefined) | -0.0212
5 | Cc1ccc(-n2c(O)c(/C=N/N3CCOCC3)c(=O)[nH]c2=S)cc1 | -0.2
6 | CN(C)C(=O)Oc1ccc(OC(=O)c2ccccc2)cc1 | -0.265
7 | CC(=NCc1ccco1)c1c(O)n(Cc2ccccc2)c(=O)[nH]c1=O | -0.967
8 | CCCCn1c(NS(=O)(=O)c2ccccc2)c(C(=O)OCC)c2nc3ccccc3nc21 | -0.586
9 | COc1cc2c(cc1OC)CN(c1ccc([N+](=O)[O-])c(C(F)(F)F)c1)CC2 | -0.0804
10 | COC(=O)N(C)c1ccc(C(O)(C(=O)OC)C(F)(F)F)cc1 (centres undefined) | 0.0514
11 | COc1ccc(CCNCc2ccccn2)cc1OC | 0.3
12 | Cn1c(O)c(N=Nc2ccc(S(=O)(=O)N3CCOCC3)cc2)c(=O)n(C)c1=O | -0.0128
13 | N=c1sc2c(n1Cc1ccccc1)CCCC2 | 0.682
14 | CCN(CC)c1ccc(N=Cc2c(O)n(-c3ccccc3C)c(=O)[nH]c2=O)cc1 | -0.448
15 | ON1C2CCCCC2N(O)C1c1ccccc1 (centres undefined) | -0.0747
16 | O=C(O)CP(=O)(O)c1ccc(Cl)cc1 | -0.0342
17 | CCN(CC)CCN=Cc1c(O)n(Cc2ccccc2)c(=O)[nH]c1=O | 0.598
18 | COc1ccc(CC(=O)N2CCN(C)CC2)cc1 | 0.2
19 | O=c1[nH]c(=O)n(C2CCCCCC2)c(O)c1C=NCC1CCCO1 (centres undefined) | 0.706
20 | O=c1[nH]c(=O)n(C2CCCCCC2)c(O)c1C=NC1CCN(Cc2ccccc2)CC1 | -0.182
21 | Cc1ccc2c(c1)CC1(CN2C)C(=O)NC(=O)N(CCc2ccccc2)C1=O (centres undefined) | -0.273
22 | CC(=O)Nc1ccc(OC(=O)N(C)c2ccccc2)cc1 | 0.899
23 | O=C(CNC1CCCCC1)N1CCC2(CC1)OCCO2 | -0.0875

Row | SMILES | z-score
24 | N[C@@H](Cc1c[nH]c2ccccc12)c1nnc(SCc2c(F)cccc2Cl)o1 | 0.752
25 | C=C1C(O)(c2ccccc2)C2CC[N+]1(C)CC2 (centres undefined) | -0.166
26 | COc1ccc(CCNCc2ccncc2)cc1OC | 0.0616
27 | CN1CCN(c2ccccc2N)CC1 | -0.225
28 | c1ccc(CCNCc2ccccc2)cc1 | -0.78
29 | Cc1ccccc1-n1c(C)nc2sccc2c1=O | -0.112
30 | CC(C)n1c(=O)c(C=Nc2ccc(Br)cc2)c(O)n(Cc2ccco2)c1=O | -0.156
31 | COc1cc2c(cc1OC)C(C(=O)N1CCC3(CC1)OCCO3)C(c1ccccc1F)N(C)C2=O (centres undefined) | -0.19
32 | CC1(c2ccccc2)NCCN2C(=O)CSC21 (centres undefined) | 0.0931
33 | CC(C)(C)C(O)C(Oc1ccc(Cl)cc1)n1cncn1 (centres undefined) | 1.71
34 | CC(C)CCNC(=O)c1c(N)n(Cc2ccc3c(c2)OCO3)c2nc3ccccc3nc12 | -0.182
35 | CCCCCc1nc2ccccc2c(=O)n1-c1ccccc1[N+](=O)[O-] | -0.173
36 | O=C(Oc1c(Cl)cc(Cl)c2ccccc12)N1CCCCC1 | 0.0761
37 | CCOc1ccc(C2SCC(=O)Nc3c2c(C)nn3C2CCOC(C)(C)C2)cc1 (centres undefined) | 0.145
38 | COc1cc(/C=N/NC(=O)CN2CC(c3ccccc3)CC2=O)ccc1OC(=O)N(C)C (centres undefined) | 0.00739
39 | COC(=O)C1=Nc2ccccc2/C1=C\c1c(O)n(-c2ccc(Br)cc2)c(=O)[nH]c1=O | -0.0459
40 | Cc1ccnc(-n2c(C)cc(C=C3C(=O)N(C)C(=S)N(C)C3=O)c2C)c1 | 0.6
41 | CCCC(C)C1(CC)C(=O)NC(=Nc2ccccc2OC)NC1=O (centres undefined) | 0.0351
42 | Cc1cccc(C)c1NC1=NCCCCS1 | -0.0499
43 | O=C(CCc1nc(-c2ccccc2F)no1)N1CCC2(CC1)OCCO2 | -0.284
44 | O=C(CNC(=O)OCc1ccccc1)Nc1ccc(Br)cc1C(=O)c1ccccc1 | -0.326
45 | O=C(c1cccs1)N1C2CCC1CC(O)(c1cccnc1)C2 (centres undefined) | -0.398
46 | Nc1cc(Cl)c2nonc2c1[N+](=O)[O-] | -0.31

Row | SMILES | z-score
47 | O=C(CN1CCCC1=O)N1CCOCC1 | 0.264
48 | Cc1ccc2c(c1)CCCN2N=O | -0.379
49 | Cc1cc(C=C2C(=O)NC(=O)NC2=O)c(C)n1-c1ccc2c(c1)OCO2 | -0.244
50 | CCOC(=O)N1CCC(NC(=O)CCc2nc(C3=CCN(C)CC3)no2)CC1 | -0.113
51 | CNP1(NC)=NC(C(F)(F)F)=NC(C(F)(F)F)=N1 | 0.0266
52 | CCCCCc1nc2c(c(=O)c3ccccc3n2C)c(=O)n1C1CCCCCC1 | -0.518
53 | CN1CCc2nc3sc(C#N)c(N)c3c(-c3cccs3)c2C1 | 0.249
54 | N#Cc1cc(F)c(N2CCNCC2)cc1Cl | 2.17
55 | CN1CCN(S(=O)(=O)c2ccc(Cl)nc2)CC1 | -0.0958
56 | O=C(c1cnn2c(C(F)(F)F)cc(-c3ccccc3)nc12)N1CCC2(CC1)OCCO2 | 0.124
57 | CCCC[N+]12CCC(CC1)C(C(=O)c1cccs1)C2 (centres undefined) | 0.482
58 | Cc1ccc(C(=O)NC(O)C(Cl)(Cl)Cl)cc1 (centres undefined) | 0.903
59 | COc1ccc(NC(c2ccccc2F)P(=O)(Oc2ccccc2)Oc2ccccc2)cc1 (centres undefined) | -0.208
60 | COCCNP(=O)(c1ccccc1)c1nc2ccccc2s1 (centres undefined) | 0.656
61 | CCC(=NCC1CCCO1)c1c(O)n(-c2ccccc2)c(=O)[nH]c1=O (centres undefined) | 1.02
62 | OC12Oc3ccccc3C=C1N1CCC2CC1 (centres undefined) | 2.17
63 | CCN1CCC(O)(c2ccccc2)C(C(=O)c2ccccc2)C1 (centres undefined) | -0.0511
64 | O=C(COc1ccc(S(=O)(=O)N2CCOCC2)cc1)N1CCN(Cc2ccc3c(c2)OCO3)CC1 | -1.18
65 | CCCC/C(=N\O)c1c[nH]c2ccccc12 | -0.111
66 | CCCCn1c(O)c(C(C)=NCc2cc(OC)cc(OC)c2)c(=O)[nH]c1=O | -2.52
67 | CCCCCCn1c(O)c(C=NCCN2CCCCC2)c(=O)[nH]c1=O | 0.0424
68 | Cc1nc2cc(C(=O)N3CCC4(CC3)OCCO4)ccc2n1-c1ccc(Br)cc1 | 0.591
69 | O=C(c1ccco1)c1cn(Cc2ccc(Cl)cc2)c2ccccc12 | -0.345

Row | SMILES | z-score
70 | Cn1c(N2CCNCC2)nc2ccccc21 | 0.0642
71 | CCCN1C2CCCC1CC(NC(C)=O)C2 (centres undefined) | -0.0343
72 | CCS(=O)(=O)N1CCC(C(=O)N2CCC3(CC2)OCCO3)CC1 | 0.00257
73 | CCN1CCN(C(=O)COc2ccc3c(c2)C(=O)CC2(CCN(C(C)=O)CC2)O3)CC1 | -0.0875
74 | CCC1(CCc2ccncc2)C(=O)NC(=O)NC1=O | -0.123
75 | CCC(=NCc1ccco1)c1c(O)n(-c2ccc(C)cc2)c(=O)[nH]c1=O | -0.0153
76 | c1ccc2c(c1)CSc1ccccc1C2C1=NCCN1 (centres undefined) | 0.812
77 | COC(=O)C1C2c3ccccc3OC1(C)N=c1s/c(=C/c3cnn(C)c3C)c(=O)n12 (centres undefined) | -0.497
78 | Cc1ccc(-c2nn(Cc3ccccc3)cc2C=O)cc1C | -0.254
79 | CC1CCC(C(=O)NC(C(=O)N2CCC3(CC2)OCCO3)C(C)C)CC1 (centres undefined) | -0.0686
80 | COc1cc2[nH]c(=O)n(-c3ccccc3)c(=O)c2cc1OC | -0.252
81 | CCOP(=O)(OCC)C(NC(C)=O)C(Cl)(Cl)Cl (centres undefined) | -0.0168
82 | Clc1cccc(Cl)c1C1N2CCCN12 (centres undefined) | -0.48
83 | CC(O)(CS(=O)(=O)c1ccccc1)C(=O)Nc1cccc(C(F)(F)F)c1 (centres undefined) | -0.0169
84 | O=C(COC(=O)c1ccc(O)cc1)Nc1ccc(Cl)cc1C(=O)c1ccccc1 | -0.606
85 | CC1CCCC(C2(O)C(=O)Nc3ccccc32)C1=O (centres undefined) | 0.275
86 | CC12CN3CC(C)(CN(C1)C3c1ccco1)C2=O (centres undefined) | 0.289
87 | O=[P+](Cc1ccccc1)Cc1ccccc1 | -0.245
88 | CCCCCSc1cc(OC)c(CCN)cc1OC | 1.67
89 | COc1ccc(C(O)c2ccccc2OP(=O)(N(C)C)N(C)C)cc1 (centres undefined) | 0.00525
90 | O=C(NCC(c1cccnc1)N1CCN(c2ccccc2)CC1)Oc1ccccc1 (centres undefined) | -0.18
91 | CN=C(SCc1cc2c(cc1Cl)OCO2)c1c(O)n(C)c(=O)n(C)c1=O | -0.109
92 | COc1ccc2c(c1)CC1(CN2C)C(=O)NC(=O)N(c2ccc(C)cc2)C1=O (centres undefined) | 0.876

Row | SMILES | z-score
93 | COc1ccc(OC)c(CN2CCN(C(=O)COc3cccc(C)c3)CC2)c1 | -0.329
94 | CCOC(=O)c1c(C)n(Cc2ccc3c(c2)OCO3)c2ccc(O)cc12 | -0.0535
95 | CC(C)OC(=O)c1c(N)n(CC2CCCO2)c2nc3ccccc3nc12 (centres undefined) | -1.51
96 | CCCCn1c(O)c(C(CC)=NCc2ccc(F)cc2)c(=O)[nH]c1=O | -0.493
97 | Nc1c(C(=O)NCc2ccco2)c2nc3ccccc3nc2n1CCN1CCCCC1 | 0.56
98 | COc1ccc(NP(=O)(Oc2ccc(Cl)cc2)Oc2ccc(Cl)cc2)cc1OC | -0.138
99 | Cc1ccc(S(=O)(=O)CC(C)(O)C(=O)Nc2cccc(C(F)(F)F)c2)cc1 (centres undefined) | 0.0261
100 | Cc1cc(N(CCCl)CCCl)ccc1/C=N/NC(=O)c1ccco1 | -2.12
101 | Cc1cc(C)cc(-n2c(O)c(C=Nc3ccc(N4CCOCC4)cc3)c(=O)[nH]c2=S)c1 | -0.109
102 | CCC(=O)CC(c1ccc([N+](=O)[O-])cc1)c1c(O)c2ccccc2oc1=O (centres undefined) | -0.268
103 | COC1=CCC2([N+](=O)[O-])CN(C)CC1([N+](=O)[O-])C2 (centres undefined) | -0.0834
104 | O=C(N/N=C/c1c(O)n(Cc2ccccc2)c(=O)[nH]c1=O)c1ccccc1 | -0.312
105 | CN1C(=O)C(=Cc2ccc(N3CCCCC3)o2)C(=O)N(C)C1=S | -0.179
106 | Cc1cc(C=O)c(C)n1CC1CCCO1 (centres undefined) | 0.421
107 | O=c1c2ccccc2nc(-c2cccs2)n1-c1ccccc1 | -0.34
108 | O=C(NC(Cc1ccccc1)C(=O)N1CCC2(CC1)OCCO2)C1CCCCC1 (centres undefined) | 0.317
109 | Cc1ccc(OCC(=O)N2CCN(C)CC2)c(Br)c1 | -0.043
110 | COc1ccccc1OP(=O)(Nc1cccnc1)Oc1ccccc1OC | 0.134
111 | O=C(CCN1CCCCC1)NCC(=O)Nc1ccc(Br)cc1C(=O)c1ccccc1 | -0.353
112 | COc1ccc(-c2nc3ccccc3n2OC(=O)N(C)C)cc1 | -0.277
113 | O=CC(Cl)P(=O)(N1CCCCC1)N1CCCCC1 (centres undefined) | -0.205
114 | CN(C)c1ccc(NC(=O)CN2C(=O)CN=C(c3ccccc3)c3ccccc32)cc1 | -0.402
